The values that follow come from the supplement of paper PMC9588766.

Where a name gives a salt, the structure may show the parent alone. ± gives the standard deviation of the averaged measurements. In all, about 2,000 compounds were measured (“cell viability relative to DMSO control (compound alone)”: median about 0.98, lowest 2% from about 0.23 on). This is one part of the list.

This experiment relates to PDC-DUC18828. As to the kind of experiment: cell viability relative to DMSO control (compound alone) (fraction); PDC-DUC18828 is a patient-derived cholangiocarcinoma cell line; higher = less growth inhibition. The settings on record: 1 µM; 72 h. Here is the method: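 Selleck Bioactive library screen in the patient-derived FGFR2-G3BP2 fusion-positive ICC cell line PDC-DUC18828 (500 cells/well). Each compound was tested at 1 uM alone, in triplicate, for 72 h. Viability was read by CellTiter-Glo and normalised to plate DMSO controls.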
For the compound `COC(=O)C1=C(C)NC(C)=C(C(=O)OC(C)C)C1c1cccc2nonc12` (configuration not stated) [Isradipine], the cell viability worked out at 1.01 ± 0.056. Regarding `CC1(C)CCC2=C(O1)c1ccccc1C(=O)C2=O` [Beta-Lapachone], the cell viability was determined as 0.79 ± 0.054. As for `CC(=O)OCC[N+](C)(C)C` [Acetylcholine Chloride], the figure is 0.945 ± 0.021; as for `S=C(NCc1ccc2c(c1)OCO2)N1CCN(c2ncnc3c2oc2ccccc23)CC1` [Amuvatinib (MP-470)], 0.916 ± 0.033. In turn, `OCCN1C[C@H](O)[C@@H](O)[C@H](O)[C@H]1CO` [Miglitol] came in with a cell viability of 1.04 ± 0.031.

On to `CC(C)C(=O)Nc1ccc([N+](=O)[O-])c(C(F)(F)F)c1` [Flutamide], for which the cell viability amounted to 1.046 ± 0.0086. In the case of `CC(=O)Oc1cc2c(s1)CCN(C(C(=O)C1CC1)c1ccccc1F)C2` (configuration not stated) [Prasugrel] it was 1.01 ± 0.086; in that of `Cn1cnc([N+](=O)[O-])c1Sc1ncnc2[nH]cnc12` [Azathioprine], 0.964 ± 0.038.

As for `CC(C)CN(C[C@@H](O)[C@H](Cc1ccccc1)NC(=O)O[C@H]1CO[C@H]2OCC[C@H]21)S(=O)(=O)c1ccc(N)cc1` [Darunavir Ethanolate], the cell viability worked out at 1 ± 0.08. As to `COc1cc(/C=C/C(=O)CC(=O)/C=C/c2ccc(O)c(OC)c2)ccc1O` [Curcumin], the cell viability was 0.968 ± 0.031.

For the compound `Cc1cc2c(F)c(Oc3ncnn4cc(OC[C@@H](C)O)c(C)c34)ccc2[nH]1`, the cell viability came to 1.01 ± 0.044. As for `O=C(O)CSCC(=O)NC1CCSC1=O` (configuration not stated) [Erdosteine], the figure is 0.961 ± 0.025. As for `O=c1[nH]cnc2[nH]ncc12` [Allopurinol Sodium], the figure is 1.06 ± 0.039; as for `CN1CCN(C2CCN(C(=O)Nc3cc(Oc4ccc(NC(=O)C5(C(=O)Nc6ccc(F)cc6)CC5)c(F)c4)ccn3)CC2)CC1` [Golvatinib (E7050)], 0.886 ± 0.048. As for `C[N+](C)(C)CCO.[Cl-]` [Choline Chloride], the figure is 1.05 ± 0.049; as for `CCOC(=O)[C@H](CCc1ccccc1)N[C@@H](C)C(=O)N1Cc2cc(OC)c(OC)cc2C[C@H]1C(=O)O` [Moexipril HCl], 1.05 ± 0.062; as for `Clc1ccc(Nc2nnc(Cc3ccncc3)c3ccccc23)cc1` [Vatalanib (PTK787) 2HCl], 0.97 ± 0.04.

The compound `Cn1cc(-c2ccc3nnc(Sc4ccc5ncccc5c4)n3n2)cn1` came in with a cell viability of 1.07 ± 0.046. Compound `O=C1NC(=O)/C(=C/c2cccc(C(F)(F)F)c2)S1` showed a cell viability of 1 ± 0.018.

Consider `Cc1cc(O)c2c(c1)C(=O)c1cc(O)cc(O)c1C2=O` [Emodin], for which the cell viability was found to be 1.04 ± 0.025.

`Fc1ccc([C@@H]2CCNC[C@H]2COc2ccc3c(c2)OCO3)cc1` [Paroxetine HCl] returned a cell viability of 0.853 ± 0.061. Regarding `Nc1nc(O)c2ncn(CCC(CO)CO)c2n1` [Penciclovir], the cell viability amounted to 0.966 ± 0.045. Take `O=c1[nH]cnc2c1ncn2[C@H]1CC[C@@H](CO)O1` [Didanosine]: the cell viability worked out at 1.03 ± 0.04. As for `CN(C/C=C/C#CC(C)(C)C)Cc1cccc2ccccc12` [Terbinafine HCl], the figure is 0.972 ± 0.019; as for `CN(C/C=C/C#CC(C)(C)C)Cc1cccc2ccccc12` [Terbinafine], 1.02 ± 0.064; as for `Nc1nc(Nc2ccc3c(c2)CCC(N2CCCC2)CC3)nn1-c1cc2c(nn1)-c1ccccc1CCC2` (configuration not stated), 0.8 ± 0.048. As for `CCCC(=O)OCOC(=O)C1=C(C)NC(C)=C(C(=O)OC)C1c1cccc(Cl)c1Cl` (configuration not stated) [Clevidipine Butyrate], the cell viability stood at 0.983 ± 0.049. For `C[C@H]1COc2c(N3CCN(C)CC3)c(F)cc3c(=O)c(C(=O)O)cn1c23` [Levofloxacin], the cell viability was 1.03 ± 0.075. For the compound `NC(CO)C(=O)NNCc1ccc(O)c(O)c1O` (configuration not stated) [Benserazide HCl], the cell viability stood at 0.949 ± 0.049. As for `CCCCC[C@H](O)/C=C/[C@H]1[C@H](O)CC(=O)[C@@H]1CCCCCCC(=O)O` [Alprostadil], the figure is 1.03 ± 0.02; as for `NC1=N[C@@](c2cccc(-c3cncnc3)c2)(c2ccnc(C(F)F)c2)c2cccc(F)c21`, 0.92 ± 0.017; as for `CC[C@@H]([C@H](C)O)n1ncn(-c2ccc(N3CCN(c4ccc(OC[C@@H]5CO[C@@](Cn6cncn6)(c6ccc(F)cc6F)C5)cc4)CC3)cc2)c1=O` [Posaconazole], 0.935 ± 0.07. Turning to `O=C(O)c1ccccc1` [Benzoic Acid], the cell viability turned out to be 1.03 ± 0.05. The compound `CC(C)[C@H](N)C(=O)OCC(CO)OCn1cnc2c(=O)[nH]c(N)nc21` (some centres not stated) [Valganciclovir HCl] displayed a cell viability of 1.02 ± 0.025.

`O=C(c1ccc(OCCCc2c[nH]cn2)cc1)C1CC1` [Ciproxifan] came in with a cell viability of 1.03 ± 0.056.

As for `CCOc1ccc(NC(C)=O)cc1` [Phenacetin], the cell viability turned out to be 1.04 ± 0.032.

As to `CN1CCC[C@@H]1CCO[C@](C)(c1ccccc1)c1ccc(Cl)cc1` [Clemastine Fumarate], the cell viability came to 1 ± 0.026. Take `CN1CCN(c2nc(C3=C(c4c[nH]c5ccccc45)C(=O)NC3=O)c3ccccc3n2)CC1` [Sotrastaurin]: the cell viability was 1.06 ± 0.043.

Compound `COc1cc2ncnc(Nc3ccc(F)c(Cl)c3)c2cc1OCCCN1CCOCC1` [Gefitinib (ZD1839)] showed a cell viability of 0.978 ± 0.02. In the case of `CC(C(=O)O)c1ccc(C(=O)c2cccs2)cc1` (configuration not stated) [Suprofen] it was 1.03 ± 0.043. As for `CN(C)CCCCC(=O)Nc1ccc(NC(=S)NC(=O)c2ccc(C(C)(C)C)cc2)cc1` [Tenovin-6], the figure is 0.919 ± 0.049. As for `C=C(c1ccc(C(=O)O)cc1)c1cc2c(cc1C)C(C)(C)CCC2(C)C` [Bexarotene], the figure is 1.07 ± 0.078; as for `CC[N+](CC)(CC)CCOc1cccc(OCC[N+](CC)(CC)CC)c1OCC[N+](CC)(CC)CC` [Gallamine Triethiodide], 1 ± 0.048. Compound `CCN(CCCOc1ccc2c(Nc3cc(CC(=O)Nc4cccc(F)c4)[nH]n3)ncnc2c1)CCOP(=O)(O)O` [Barasertib (AZD1152-HQPA)] registered a cell viability of 0.803 ± 0.06. As for `Cc1ccccc1N=Nc1ccc(NC(=O)c2ccnn2C)c(C)c1`, the cell viability is 0.99 ± 0.016. On to `Cc1c[nH]c(/C=C2\C(=O)Nc3ccccc32)c1CCC(=O)O`, for which the cell viability turned out to be 0.934 ± 0.021. As for `CCc1oc2ccccc2c1C(=O)c1cc(Br)c(O)c(Br)c1` [Benzbromarone], the figure is 1.02 ± 0.049. As for `CC/C(=C(\c1ccccc1)c1ccc(OCCN(C)C)cc1)c1ccccc1` [Tamoxifen Citrate], the cell viability was 0.945 ± 0.034. In the case of `Cn1cc(-c2ccc(S(=O)(=O)n3ccc(/C=C/C(=O)Nc4ccccc4N)c3)cc2)cn1` it was 0.496 ± 0.03.

Regarding `O=c1c(O)c(-c2ccc(O)c(O)c2)oc2cc(O)cc(O)c12` [Quercetin Dihydrate], the cell viability is 0.936 ± 0.061.

Regarding `O=c1c(O)c(-c2ccc(O)c(O)c2)oc2cc(O)cc(O)c12` [Quercetin], the cell viability was determined as 0.957 ± 0.034. `COc1ccc(C2=N[C@H](c3ccc(Cl)cc3)[C@H](c3ccc(Cl)cc3)N2C(=O)N2CCNC(=O)C2)c(OC(C)C)c1` [Nutlin-3b] had a cell viability of 0.986 ± 0.062.
